Measurements as given in PMC12136788.
The other results are listed elsewhere or left out.

B1: chr9:125236489:125236593:-|3pUTR|ENSG00000044574|msi1_unk|FALSE|overlapping (ssRNA)
RNA: GGGAGUUCUACAGUCCGACGAUCUGUAGACACUGAUCUGCUAGUGCUGUAAUAUUGUAAAUACUGGACUCAGGAACUUUUGUUAGGAAAAAAUUGAAAGAACUUAAGUCUCGAAUGUAAUUGGAAUCUUCACCUCAGAGUGGACAACAGAGGAUUGAGCAUCA
B2: chr8:103229222:103229323:+|3pUTR|ENSG00000164929|unk|total|mutant (ssRNA)
RNA: GGGAGUUCUACAGUCCGACGAUCUAAUUUUCCCGUAUGUCUUGAAACAUGUUCAUCUGGAAGUAUUUUCCUCCAAAGUAAUGCCGCAUGAUUUUUCAAGGAUUGUUAACAUGCCUGGGAUUGGGAAAGACCGGACUAAAGUUGCAACAGAGGAUUGAGCAUCA
B3: ENSG00000107863:be:win_5351|CDS|ENSG00000107863|bound_else_gene|NA|bound_elsewhere_windowed (ssRNA)
RNA: GGGAGUUCUACAGUCCGACGAUCGGAAUCACAAAGUGAAUGCCGAGACUGCUAAAAGGAAAAGCAUCCGGCGCAGACAUACACUAGGAGGGCACAGAGAUGCUACCGAAAUCAGCGUUUUGAAUUUUUGGAAAGUGCAUGAGCCAACAGAGGAUUGAGCAUCA
B4: chr8:22006364:22006465:+|3pUTR|ENSG00000130227|msi1|FALSE|unique (ssRNA)
RNA: GGGAGUUCUACAGUCCGACGAUCUGUUGCUGCUAGUUGUACACAUCUCUAGUUCAGCUCUUGCCCACGGGACACUCAUCAAUUAGGUUUUAUUUUUAUUUCUUUCCUCUACCCCCAGAAACAAGCCUGUUAAUUUUUUUUCCUCAACAGAGGAUUGAGCAUCA
B5: ENSG00000107863:be:win_4101|CDS|ENSG00000107863|bound_else_gene|NA|bound_elsewhere_windowed (ssRNA)
RNA: GGGAGUUCUACAGUCCGACGAUCUUUACUCACCAACAUUGGAAGGACAGGAGUCUCCCCAGGAGAUGUAUCAGAUUCAGCUACUAGUGACUCAACAAAAUCUAAGGGUUCUUGGGGAUCUGGAAAGGAUCAGUAUAGCAGGGACAACAGAGGAUUGAGCAUCA
B6: chr6:46858128:46859523:-|CDS|ENSG00000069122|control|control|control (ssRNA)
RNA: GGGAGUUCUACAGUCCGACGAUCAGCUGUGGUGUGGAAAUCGGUGACCAAGAACCGGACUUCUUAUAUGCGCCACACCUGCAUAGUGAAUAUCGCUGCCUCCCUUCUGGUCGCCAACACCUGGUUCAUUGUGGUCGCUGCCAUCAACAGAGGAUUGAGCAUCA
B7: chr7:50445662:50445763:-|CDS|ENSG00000132436|msi1|FALSE|unique (ssRNA)
RNA: GGGAGUUCUACAGUCCGACGAUCGUUAUCUCAACGGGGAGAUGGUGAGCAUGAAUCUUCUAGAAGGAUAAAAACAGAAUUUUUAGUUCAAUUAGAUGGAGCAACAACAUCUUCUGAAGAUCGUAUCCUAGUGGUGGGAGCAACCAACAGAGGAUUGAGCAUCA
B8: ENSG00000163902:stop:overlap|stop_codon|ENSG00000163902|stop_codon|NA|stop_codon (ssRNA)
RNA: GGGAGUUCUACAGUCCGACGAUCUCAUCUCAGGAAAGCGCCAGGAGCUGGUCACCAAGAUCGACCACAUCCUGGAUGCCCUGUAGCCCCUGCCCGCAUCCUCCAGGGGGCCCAGGGUGCCUGCACUUUGCUGUGGCAGGCAGACAACAGAGGAUUGAGCAUCA
B9: chr10:84150713:84150851:+|CDS|ENSG00000165678|unk|total|mutant (ssRNA)
RNA: GGGAGUUCUACAGUCCGACGAUCUCUUCCACCUACCACCGUGGCUGGUGCCACUCUUUACUCAGUGGCAAUGUACGGUGGAUCCGUUCUUUUCAGCAUGUUCCUUCUGUAUGAUACCCAGAAAGUAAUCAAGCGUGCAGAAGUCAACAGAGGAUUGAGCAUCA
B10: chr11:75587191:75587292:-|CDS|ENSG00000171533|unk|total|mutant (ssRNA)
RNA: GGGAGUUCUACAGUCCGACGAUCACAGCCUCCAAAGAAUCAAGGUCGUACCGUCCCUGAACCUCUGAAGAAUCAAGUUCCUACCGUCCCAGUGCCUCUGAAGGAUCAAGAUCCUCUGGUGCCAGUACCAGCAAAGGACCAAGGCAACAGAGGAUUGAGCAUCA
B11: ENSG00000107863:be:win_6501|3pUTR|ENSG00000107863|bound_else_gene|NA|bound_elsewhere_windowed (ssRNA)
RNA: GGGAGUUCUACAGUCCGACGAUCAUACCAGAUUUGAUAUAAUGUUGUAACAUAGGUGUGUAGAUAGUGGAUCCUGGAUGGAACUGGCUUCUUUAUCGAGAAGAAUAUAAUUCUGCAUGAGGACUUAAUGAAUCCAAACCUGUGCAACAGAGGAUUGAGCAUCA
B12: chr22:21921976:21922077:-|3pUTR|ENSG00000100034|msi1|total|mutant (ssRNA)
RNA: GGGAGUUCUACAGUCCGACGAUCGACUGCAGUGGGCUCGGACCGGCCCAUUGAGGUUUUCCGAAAAGCAGGAUUUGUUUUGUCCGGGAGGCAUGAUUUUGGUGAGAUCUUUCUGGAAGAGUUUUCCGCCUCUUUGUGAUGCUGCAACAGAGGAUUGAGCAUCA
B13: ENSG00000198589:be:win_6701|CDS|ENSG00000198589|bound_else_gene|NA|bound_elsewhere_windowed (ssRNA)
RNA: GGGAGUUCUACAGUCCGACGAUCUGUUUCCUUGGGUCAUCACUAAUUAUGAAUCAGAAGAACUGGAUCUUACCUUGCCCACCAACUUCAGAGAUUUGUCCAAGCCAAUAGGAGCUCUGAACCCAAAAAGAGCAGCAUUCUUCGCAACAGAGGAUUGAGCAUCA
B14: ENSG00000198589:be:win_1351|CDS|ENSG00000198589|bound_else_gene|NA|bound_elsewhere_windowed (ssRNA)
RNA: GGGAGUUCUACAGUCCGACGAUCAUGCUCCAGGAUGUAAAGGCAGUUUUAACACAUUCCAUCCAAAGUGCAAUGCAUUCAAUUGGAGGAGUACAAGUACUAUUUCCACUUUUUGCACAGUUGGAUUACAGGCAAUAUUUGUCUCAACAGAGGAUUGAGCAUCA
B15: chr2:45599705:45599806:-|CDS|ENSG00000068784|msi1|FALSE|unique (ssRNA)
RNA: GGGAGUUCUACAGUCCGACGAUCCUCAUAUGUUCUCUUUGUGGUUUGAUAGAAUAGCUCUGUGGCUAUUGCUGAUACUGCUUUAGAAGACAGAAAAAAUAAAUUGGAUACUGUACAGACUCUGAAAACAGCCAAGACAAAACACAACAGAGGAUUGAGCAUCA
B16: chr16:68014110:68014412:-|CDS|ENSG00000263201|control|control|control (ssRNA)
RNA: GGGAGUUCUACAGUCCGACGAUCAGGCGUGCUCCCAAGAGACGUCAAGCUACGAUAGAGUCAGAUAAAGACCUGGGUUGCUCUAGCCCCAAAAUUCGGCGCUUGGAGCAUCGUGGCAGGAGACUGACCCCACAGAAGCUUGCUCAACAGAGGAUUGAGCAUCA
B17: chr9:114598126:114598323:+|3pUTR|ENSG00000136888|msi1|FALSE|unique (ssRNA)
RNA: GGGAGUUCUACAGUCCGACGAUCUCUUUGUAACCUGUGUGAAGCAGCAGCCAGCCUUAAAGUAGUCCAUUCUUGCUAAUGGUUAGAACAGUGAAUACUAGUGGAAUUGUUUGGGCUGCUUUUAGUUUCUCUUAAUCAAAAUUACAACAGAGGAUUGAGCAUCA
B18: chr17:58089516:58089557:+|3pUTR|ENSG00000264364|msi1_unk|total|mutant (ssRNA)
RNA: GGGAGUUCUACAGUCCGACGAUCGAAGGCUGCUUUAUGUUUAUUUUUCAAGACUUUAAAAAUAUUUUUUGGUUGUAUUGCACCCGGAAAUCUCUCCCACCUCUCCCUUUUCUCUUUCUUUCCCUAUACAAAAUAAAAGGCCCACAACAGAGGAUUGAGCAUCA
B19: chr8:30843048:30843149:-|CDS|ENSG00000133863|unk|total|mutant (ssRNA)
RNA: GGGAGUUCUACAGUCCGACGAUCGGAUACUAUAAUUGCUUCCAGAAAGUCAGAUCAUCCAAUAAACGAAGCAACAAUCCGCACCGAAAAUUCUAAAUUUAACAGUAAUUUGCUUGCACACCCAGAUAUUUGUUGUAUCCGUGACAACAGAGGAUUGAGCAUCA
B20: chr17:7656804:7656905:+|3pUTR|ENSG00000129244|unk|FALSE|unique (ssRNA)
RNA: GGGAGUUCUACAGUCCGACGAUCGCAUGUGCCACCAUGCCCGGCUAAUUUCUUUCUUUCUUUUUUUUUUUUUUUGCAUUUUUUAGUAGAGAUGGGGGUUUCUCCUUGUUGGUCAGGCUGGUCUCGAACUCCCGACCUCAGGUGCAACAGAGGAUUGAGCAUCA
B21: ENSG00000162599:stop:overlap|stop_codon|ENSG00000162599|stop_codon|NA|stop_codon (ssRNA)
RNA: GGGAGUUCUACAGUCCGACGAUCUCACACAGCAUCACCGACCUGUCAUUACAGGACCCAGAGCUUUUCUUUGGAGCCUCCCAUAGAAGAGAGACUGGGAUUUAAAGGCUGAUGCCAGAAAGCAAAAGCUAACGUGAAAAGAAUCAACAGAGGAUUGAGCAUCA
B22: ENSG00000076706:stop:overlap|stop_codon|ENSG00000076706|stop_codon|NA|stop_codon (ssRNA)
RNA: GGGAGUUCUACAGUCCGACGAUCGCAGCGGUGACAAGAGGGCUCCGGGAGACCAGGGAGAGAAAUACAUCGAUCUGAGGCAUUAGCCCCGAAUCACUUCAGCUCCCUUCCCUGCCUGGACCAUUCCCAGCUCCCUGCUCACUCCAACAGAGGAUUGAGCAUCA

biological target: MSI1 full-length (mouse, UniProt Q61474 1-362); test: nsRBNS (natural sequence RNA bind-n-seq); RBNS binding buffer (assumed for nsRBNS): 25 mM Tris pH 7.5, 150 mM KCl, 3 mM MgCl2, 0.01% Triton X-100, 500 ug/ml BSA, 20 U/ml SUPERase-In, 4 C; UNK is unkempt and MSI1 is Musashi-1; names of the RNAs are library labels; protein concentration not given here; high values mean tight binding
UniProt Q61474, sequence (Q61474 whole entry): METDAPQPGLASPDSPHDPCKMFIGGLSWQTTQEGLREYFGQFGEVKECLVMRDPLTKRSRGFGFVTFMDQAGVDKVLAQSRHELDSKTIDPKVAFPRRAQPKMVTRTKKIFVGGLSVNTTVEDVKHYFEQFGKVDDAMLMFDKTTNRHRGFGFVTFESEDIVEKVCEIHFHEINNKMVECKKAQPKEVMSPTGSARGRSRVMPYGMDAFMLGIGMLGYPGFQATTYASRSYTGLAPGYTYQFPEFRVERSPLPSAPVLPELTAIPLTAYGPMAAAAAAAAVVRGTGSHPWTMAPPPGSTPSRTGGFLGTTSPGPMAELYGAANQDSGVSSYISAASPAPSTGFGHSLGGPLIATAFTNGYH

| Binder | binding signal |
| --- | --- |
| B1 | 4.38 enrichment R |
| B2 | 0.249 enrichment R |
| B3 | 0.431 enrichment R |
| B4 | 9.57 enrichment R |
| B5 | 2.02 enrichment R |
| B6 | 0.428 enrichment R |
| B7 | 1.55 enrichment R |
| B8 | 1.05 enrichment R |
| B9 | 0.402 enrichment R |
| B10 | 0.382 enrichment R |
| B11 | 0.986 enrichment R |
| B12 | 0.367 enrichment R |
| B13 | 0.363 enrichment R |
| B14 | 0.2 enrichment R |
| B15 | 0.298 enrichment R |
| B16 | 0.338 enrichment R |
| B17 | 2.41 enrichment R |
| B18 | 2.22 enrichment R |
| B19 | 1.28 enrichment R |
| B20 | 2.6 enrichment R |
| B21 | 8.72 enrichment R |
| B22 | 0.684 enrichment R |
